# The list shows a part of the results.
# Tests used:
# Assay in all cases: glycan array binding signal (z-score within array); higher = stronger binding
# Conditions in all cases: glycan notation: IUPAC condensed, linker removed
# [1] = target: Gal(b1-4)GlcNAc(b1-3)Gal(b1-4)GlcNAc(b1-3)Gal(b1-4)GlcNAc(b1-3)Gal(b1-4)GlcNAc(b1-2)Man(a1-3)[Gal(b1-4)GlcNAc(b1-3)Gal(b1-4)GlcNAc(b1-3)Gal(b1-4)GlcNAc(b1-3)Gal(b1-4)GlcNAc(b1-2)Man(a1-6)]Man(b1-4)GlcNAc(b1-4)GlcNAc
# Procedure, shortened: (§1)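 The binding signal is a Z-score computed within each array and averaged over linkers. Arrays of the same protein sequence at different concentrations or buffers were also averaged together. Data originate from 3228 arrays in the Consortium for Functional Glycomics database, kept only where the protein sequence was available.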
# [2] = target: Gal(b1-4)GlcNAc(b1-3)Gal(b1-4)GlcNAc(b1-3)Gal(b1-4)GlcNAc(b1-3)Gal(b1-4)GlcNAc(b1-2)Man(a1-3)[Gal(b1-4)GlcNAc(b1-3)Gal(b1-4)GlcNAc(b1-3)Gal(b1-4)GlcNAc(b1-3)Gal(b1-4)GlcNAc(b1-2)Man(a1-6)]Man(b1-4)GlcNAc(b1-4)[Fuc(a1-6)]GlcNAc
# Procedure, shortened: as §1
# [3] = target: Gal(b1-4)GlcNAc(b1-3)Gal(b1-4)GlcNAc(b1-3)Gal(b1-4)GlcNAc(b1-3)Gal(b1-4)GlcNAc(b1-2)[Gal(b1-4)GlcNAc(b1-3)Gal(b1-4)GlcNAc(b1-3)Gal(b1-4)GlcNAc(b1-3)Gal(b1-4)GlcNAc(b1-6)]Man(a1-6)[Gal(b1-4)GlcNAc(b1-3)Gal(b1-4)GlcNAc(b1-3)Gal(b1-4)GlcNAc(b1-3)Gal(b1-4)GlcNAc(b1-2)Man(a1-3)]Man(b1-4)GlcNAc(b1-4)[Fuc(a1-6)]GlcNAc
# Procedure, shortened: as §1
# [4] = target: Gal(b1-4)GlcNAc(b1-3)Gal(b1-4)GlcNAc(b1-3)Gal(b1-4)GlcNAc(b1-3)Gal(b1-4)GlcNAc(b1-3)Gal(b1-4)GlcNAc(b1-2)Man(a1-3)[Gal(b1-4)GlcNAc(b1-3)Gal(b1-4)GlcNAc(b1-3)Gal(b1-4)GlcNAc(b1-3)Gal(b1-4)GlcNAc(b1-3)Gal(b1-4)GlcNAc(b1-2)Man(a1-6)]Man(b1-4)GlcNAc(b1-4)GlcNAc
# Procedure, shortened: as §1
# [5] = target: Gal(b1-4)GlcNAc(b1-3)Gal(b1-4)GlcNAc(b1-3)Gal(b1-4)GlcNAc(b1-3)Gal(b1-4)GlcNAc(b1-3)Gal(b1-4)GlcNAc(b1-2)Man(a1-3)[Gal(b1-4)GlcNAc(b1-3)Gal(b1-4)GlcNAc(b1-3)Gal(b1-4)GlcNAc(b1-3)Gal(b1-4)GlcNAc(b1-3)Gal(b1-4)GlcNAc(b1-2)Man(a1-6)]Man(b1-4)GlcNAc(b1-4)[Fuc(a1-6)]GlcNAc
# Procedure, shortened: as §1
# [6] = target: Gal(b1-4)GlcNAc(b1-3)Gal(b1-4)GlcNAc(b1-3)Gal(b1-4)GlcNAc(b1-3)Gal(b1-4)GlcNAc(b1-3)Gal(b1-4)GlcNAc(b1-2)[Gal(b1-4)GlcNAc(b1-3)Gal(b1-4)GlcNAc(b1-3)Gal(b1-4)GlcNAc(b1-3)Gal(b1-4)GlcNAc(b1-3)Gal(b1-4)GlcNAc(b1-6)]Man(a1-6)[Gal(b1-4)GlcNAc(b1-3)Gal(b1-4)GlcNAc(b1-3)Gal(b1-4)GlcNAc(b1-3)Gal(b1-4)GlcNAc(b1-3)Gal(b1-4)GlcNAc(b1-2)Man(a1-3)]Man(b1-4)GlcNAc(b1-4)[Fuc(a1-6)]GlcNAc
# Procedure, shortened: as §1
# [7] = target: Gal(b1-4)GlcNAc(b1-3)Gal(b1-4)GlcNAc(b1-3)Gal(b1-4)GlcNAc(b1-3)Gal(b1-4)GlcNAc(b1-3)Gal(b1-4)GlcNAc(b1-3)Gal(b1-4)GlcNAc(b1-2)Man(a1-3)[Gal(b1-4)GlcNAc(b1-3)Gal(b1-4)GlcNAc(b1-3)Gal(b1-4)GlcNAc(b1-3)Gal(b1-4)GlcNAc(b1-3)Gal(b1-4)GlcNAc(b1-3)Gal(b1-4)GlcNAc(b1-2)Man(a1-6)]Man(b1-4)GlcNAc(b1-4)GlcNAc
# Procedure, shortened: as §1
# [8] = target: Gal(b1-4)GlcNAc(b1-3)Gal(b1-4)GlcNAc(b1-3)GalNAc
# Procedure, shortened: as §1
# [9] = target: Gal(b1-4)GlcNAc(b1-3)Gal(b1-4)GlcNAc(b1-3)[Gal(b1-4)GlcNAc(b1-3)Gal(b1-4)GlcNAc(b1-6)]GalNAc
# Procedure, shortened: as §1
# [10] = target: Gal(b1-4)GlcNAc(b1-3)Gal(b1-4)GlcNAc(b1-6)[Gal(b1-3)]GalNAc
# Procedure, shortened: as §1
# [11] = target: Gal(b1-4)GlcNAc(b1-3)Gal(b1-4)[Fuc(a1-3)]GlcNAc(b1-3)Gal(b1-4)[Fuc(a1-3)]GlcNAc
# Procedure, shortened: as §1
# [12] = target: Gal(b1-4)GlcNAc(b1-3)GalNAc
# Procedure, shortened: as §1
# [13] = target: Gal(b1-4)GlcNAc(b1-3)[Fuc(a1-3)GlcNAc(b1-6)]Gal(b1-4)Glc
# Procedure, shortened: as §1
# [14] = target: Gal(b1-4)GlcNAc(b1-3)[Gal(b1-4)GlcNAc(b1-6)]Gal(b1-4)GlcNAc
# Procedure, shortened: as §1
# [15] = target: Gal(b1-4)GlcNAc(b1-3)[Gal(b1-4)GlcNAc(b1-6)]GalNAc
# Procedure, shortened: as §1
# [16] = target: Gal(b1-4)GlcNAc(b1-3)[GlcNAc(b1-6)]Gal(b1-4)GlcNAc
# Procedure, shortened: as §1
# [17] = target: Gal(b1-4)GlcNAc(b1-6)Gal(b1-4)GlcNAc
# Procedure, shortened: as §1
# [18] = target: Gal(b1-4)GlcNAc(b1-6)Gal(b1-4)GlcNAc(b1-6)GalNAc
# Procedure, shortened: as §1
# [19] = target: Gal(b1-4)GlcNAc(b1-6)GalNAc
# Procedure, shortened: as §1
# [20] = target: Gal(b1-4)GlcNAc(b1-6)[Gal(b1-3)]GalNAc
# Procedure, shortened: as §1
# [21] = target: Gal(b1-4)GlcNAc(b1-6)[Gal(b1-4)GlcNAc(b1-3)]GalNAc
# Procedure, shortened: as §1
# [22] = target: Gal(b1-4)GlcNAc6P
# Procedure, shortened: as §1
# [23] = target: Gal(b1-6)Gal
# Procedure, shortened: as §1
binder,measurement,setting,value
"GNA (Galanthus nivalis), P30617 (protein) MAKASLLILAAIFLGVITPSCLSDNILYSGETLSTGEFLNYGSFVFIMQEDCNLVLYDVDKPIWATNTGGLSRSCFLSMQTDGNLVVYNPSNKPIWASNTGGQNGNYVCILQKDRNVVIYGTDRWATGTHTGLVGIPASPPSEKYPTAGKIKLVTAK",glycan array binding signal (z-score),[1],-0.076
same,glycan array binding signal (z-score),[2],-0.052
same,glycan array binding signal (z-score),[3],-0.122
same,glycan array binding signal (z-score),[4],-0.155
same,glycan array binding signal (z-score),[5],-0.106
same,glycan array binding signal (z-score),[6],-0.018
same,glycan array binding signal (z-score),[7],-0.001
same,glycan array binding signal (z-score),[8],-0.039
same,glycan array binding signal (z-score),[9],-0.06
same,glycan array binding signal (z-score),[10],-0.052
same,glycan array binding signal (z-score),[11],-0.249
same,glycan array binding signal (z-score),[12],-0.197
same,glycan array binding signal (z-score),[13],-0.161
same,glycan array binding signal (z-score),[14],-0.21
same,glycan array binding signal (z-score),[15],-0.206
same,glycan array binding signal (z-score),[16],-0.173
same,glycan array binding signal (z-score),[17],-0.108
same,glycan array binding signal (z-score),[18],0.012
same,glycan array binding signal (z-score),[19],-0.162
same,glycan array binding signal (z-score),[20],-0.164
same,glycan array binding signal (z-score),[21],-0.158
same,glycan array binding signal (z-score),[22],-0.176
same,glycan array binding signal (z-score),[23],-0.149

# Source: the supplement of paper PMC8728848
